# Source: PubChem BioAssay (NCATS)
# This list was built around the results that the source calls inconclusive (neither active nor inactive); the mix of calls is not that of the screen. For some assays here: No potency is given beside an inconclusive call; the fits are too rough. Active and inactive are the calls of the source. Calls come from the whole dose curve; as a rule, active = well fitted curve in the direction sought with a large enough effect; inconclusive = small, poorly fitted or top-dose-only effect, or another doubt; inactive = no such curve, though single readings can be large; an effect the other way counts as inactive or inconclusive.
# What was measured:
# [1] = P-glycoprotein substrates identified in KB-3-1 adenocarcinoma cell line, qHTS therapeutic library screen (AID 1346986); details: KB-3-1 parental cells viability, CellTiter-Glo, 72 h; series mostly up to 44.5 µM;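 note: potency is the fitted concentration of half-maximal effect; potency is for cytotoxicity meaning loss of cell viability; nearly all actives have a fitted effect of over 60% in size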
# Summary of the method: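 In 1536-well format, 500 cells/well received pinned compound titrations and were incubated 72 h, 5% CO2. Viability was read by CellTiter-Glo; cytotoxic if AC50 < 10 uM and efficacy >50%.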
# [2] = NS1 protein of Zika virus - qHTS assay to identify small molecule inhibitors in human HEK 293 cells (AID 1347053); note: potency is the fitted concentration of half-maximal effect; nearly all actives have a fitted effect of over 55% in size
# Summary of the method: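 TR-FRET signal from two anti-ZIKV NS1 antibodies quantified NS1 in HEK 293 cells 24 h after MR766 infection at MOI = 0.5; compounds were added 1 h before virus. Uninfected cells and infected cells defined the NS1 normalization range.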
# [3] = qHTS of pediatric cancer cell lines to identify multiple opportunities for drug repurposing: Primary screen for BT-37 cells (AID 1347094); note: potency is the fitted concentration of half-maximal effect
# Summary of the method: (§1)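 Phenotypic viability qHTS, 48 h compound exposure, CellTiter-Glo luminescence read-out; multi-concentration dosing so that potency and efficacy derive directly from the primary screen's curves.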
# [4] = qHTS of pediatric cancer cell lines to identify multiple opportunities for drug repurposing: Primary screen for RD cells (AID 1347104); note: potency is the fitted concentration of half-maximal effect; nearly all actives have a fitted effect of over 55% in size
# Summary of the method: as §1
# [5] = qHTS of pediatric cancer cell lines to identify multiple opportunities for drug repurposing: Primary screen for MG 63 (6-TG R) cells (AID 1347105); details: MG 63 (6-TG R) viability, CellTiter-Glo, 48 h; activity change, negative = cytotoxic: at 46 µM (top of the series) unless noted; note: potency is the fitted concentration of half-maximal effect; nearly all actives have a fitted effect of over 50% in size
# Summary of the method: as §1
# [6] = qHTS of pediatric cancer cell lines to identify multiple opportunities for drug repurposing: Primary screen for control Hh wild type fibroblast cells (AID 1347106); note: potency is the fitted concentration of half-maximal effect; nearly all actives have a fitted effect of over 55% in size
# Summary of the method: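 Cells (500-1,000/well) in growth media were settled 5 h at 37 degrees C, then given compounds for 48 h. Viability was read as CellTiter-Glo luminescence. Primary runs used MIPE at 11 points (0.78 nM-46 µM) and NPC at 8 points (0.59 nM-46 µM); follow-ups used 11 points.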
# [7] = qHTS of pediatric cancer cell lines to identify multiple opportunities for drug repurposing: Confirmatory screen for DAOY cells (AID 1347114); note: potency is the fitted concentration of half-maximal effect; nearly all actives have a fitted effect of over 65% in size
# Summary of the method: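 Viability measured as metabolically active cells via CellTiter-Glo luminescence following 48 hours of compound exposure, 11-point dilutions in confirmatory testing. 500-1,000 cells/well plated 5 hours before dosing; controls were DMSO and 2.3 µM bortezomib.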
# [8] = Quantitative High-Throughput drug screen in 47 multiple myeloma cell lines against the NCATS MIPE library collection: KMM1_JCRB cell viability assay (AID 1918960); note: potency is the fitted concentration of half-maximal effect; nearly all actives have a fitted effect of over 30% in size
# Summary of the method: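 500 cells/well; MIPE 4.0 library pinned in; 48 h, 37 °C, 5% CO2; CellTiter-Glo ATP luminescence. Controls: DMSO = 100% viability, medium only = 0%.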
# [9] = Quantitative High-Throughput drug screen in 47 multiple myeloma cell lines against the NCATS MIPE library collection: KMS21BM_JCRB cell viability assay (AID 1918974); details: ATP luminescence, 48 h; viability: at 45.8 µM (top of the series); note: potency is the fitted concentration of half-maximal effect
# Summary of the method: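 Relative luminescence from CellTiter-Glo served as the viability signal, referenced to DMSO-treated (100%) and cell-free medium (0%) controls. Treatment lasted 48 hours at 37C with 500 cells per well.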
# [10] = Quantitative High-Throughput drug screen in 47 multiple myeloma cell lines against the NCATS MIPE library collection: MOLP8_DSMZ cell viability assay (AID 1918977); details: MOLP8 myeloma viability, CellTiter-Glo ATP luminescence, 48 h; series mostly up to 45.8 µM; note: potency is the fitted concentration of half-maximal effect; nearly all actives have a fitted effect of over 45% in size
# Summary of the method: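 Cells were exposed to library compounds for 48 hours, after which ATP was measured by CellTiter-Glo. Signal was taken as median relative luminescence units.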
# [11] = system: MCC-13; assay: qHTS assay to identify novel small-molecules to repurpose for Merkel cell carcinoma treatment (AID 1296009); details: MCC and control cell lines, CellTiter-Glo viability, 72 h; series mostly up to 46 µM; note: nearly all actives have a fitted effect of over 60% in size; note: potency is the fitted concentration of half-maximal effect
# Summary of the method: (§2)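 Dose-response viability screen; 72 hr exposure at 37 degree celsius; CellTiter-Glo added, 10 min room temperature, luminescence read; RLUs scaled between no-cell and DMSO wells.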
# [12] = system: MKL-1; assay: as above; details: MCC and control cell lines, CellTiter-Glo viability, 72 h; activity change, negative = cytotoxicity: at 46 µM (top of the series)
# Summary of the method: as §2
# [13] = system: MKL-2; assay: as above; details: MCC and control cell lines, CellTiter-Glo viability, 72 h; activity change, negative = cytotoxicity: at 46 µM (top of the series)
# Summary of the method: as §2
# [14] = qHTS of pediatric cancer cell lines to identify multiple opportunities for drug repurposing: Primary screen for Saos-2 cells (AID 1347097); details: Saos-2 viability, CellTiter-Glo ATP luminescence, 48 h; activity change, negative = cytotoxic: at 46 µM (top of the series); note: potency is the fitted concentration of half-maximal effect; nearly all actives have a fitted effect of over 40% in size
# Summary of the method: as §1
# [15] = target: Calcium and integrin-binding protein 1 (Homo sapiens) (UniProt Q99828); assay: Primary qHTS for Identification of Calcium Integrin Binding Protein 1 (CIB1) Competitor (AID 1508620); note: potency is the fitted concentration of half-maximal effect
# Sequence of UniProt Q99828 (Q99828 whole entry, looked up): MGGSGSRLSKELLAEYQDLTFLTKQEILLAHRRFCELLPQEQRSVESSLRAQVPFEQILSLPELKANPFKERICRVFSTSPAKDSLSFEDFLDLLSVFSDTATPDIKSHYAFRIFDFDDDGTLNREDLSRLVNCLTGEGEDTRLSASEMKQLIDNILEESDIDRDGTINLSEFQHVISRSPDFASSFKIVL
# Summary of the method: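 Fluorescence polarization competition: GST-tagged CIB1 (1 uM final) preincubated with compound 15 min at room temperature, then FITC-labelled alphaIIb peptide (100 nM final) added. After 15 min at room temperature, polarization read at Ex 480/Em 540.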
# [16] = qHTS of pediatric cancer cell lines to identify multiple opportunities for drug repurposing: Primary screen for NB1643 cells (AID 1347099); note: potency is the fitted concentration of half-maximal effect; nearly all actives have a fitted effect of over 50% in size
# Summary of the method: as §1
# [17] = Primary qHTS for small molecule stabilizers of the endoplasmic reticulum resident proteome: Secreted ER Calcium Modulated Protein (SERCaMP) assay (AID 1508630); details: SH-SY5Y GLuc-SERCaMP (Gaussia luciferase released on ER calcium loss) secretion, thapsigargin, luminescence; series mostly up to 38.4 µM
# Summary of the method: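 The SH-SY5Y reporter protocol was run at 3 concentrations up to 38.3 uM (primary) or 11 concentrations (follow-up): 16 h compound, 100 nM thapsigargin for 4 h, then extracellular luciferase luminescence.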
# [18] = system: MCC-26; assay: qHTS assay to identify novel small-molecules to repurpose for Merkel cell carcinoma treatment (AID 1296009); details: MCC and control cell lines, CellTiter-Glo viability, 72 h; series mostly up to 46 µM; note: nearly all actives have a fitted effect of over 60% in size; note: potency is the fitted concentration of half-maximal effect
# Summary of the method: as §2
# Tags give direction and shape of the fitted curve.
smiles,measurement,setting,value
Cn1c2ccccc2c2c3c(c4c5ccccc5n(CCC#N)c4c21)CNC3=O,Potency,[1],"inconclusive [inhibitor, partial curve]"
same,Potency,[2],"inconclusive [inhibitor, single point]"
same,Potency,[3],active: 7.69 µM
same,Potency,[4],"inconclusive [cytotoxic, full curve]"
same,Potency,[5],active: 14.8 µM
same,Potency,[6],"inconclusive [cytotoxic, full curve]"
same,Potency,[7],"inconclusive [cytotoxic, partial curve]"
same,Potency,[8],active: 0.935 µM
same,Potency,[9],"inconclusive [rising, full curve, poor fit]"
same,Potency,[10],active: 10.5 µM
same,Potency,[11],"inconclusive [inhibitor, full curve]"
same,Potency,[12],"inconclusive [inhibitor, single point]"
same,Potency,[13],"inconclusive [inhibitor, full curve]"
COc1cc(-c2ccc(=O)[nH]n2)ccc1OC(F)F,Potency,[14],"inconclusive [cytotoxic, full curve, poor fit]"
CC1(CO)CCCC2(C)C1C(OC(=O)c1ccccc1)C=C1C(=O)OCC12O (configuration not stated),Potency,[15],"inconclusive [inhibitor, partial curve, poor fit]"
O=C(CCCCCCC(=O)Nc1cccnc1)NO,Potency,[3],active: 19.3 µM
same,Potency,[16],active: 2.96 µM
same,Potency,[6],"inconclusive [cytotoxic, single point]"
same,Potency,[17],inactive
same,Potency,[9],active: 2.35 µM
same,Potency,[10],active: 3.32 µM
C[C@H](NCc1ccc2c(c1)nc(NC(=O)c1ccc(-c3cn[nH]c3)s1)n2CCc1ccccc1)C(C)(C)C,Potency,[2],active: 8.33 µM
same,Potency,[16],active: 1.18 µM
same,Potency,[5],active: 2.96 µM
same,Potency,[6],"inconclusive [cytotoxic, full curve]"
same,Potency,[7],active: 2.93 µM
same,Potency,[8],active: 0.833 µM
same,Potency,[9],"inconclusive [rising, partial curve, poor fit]"
same,Potency,[10],active: 0.59 µM
same,Potency,[18],active: 10.5 µM
same,Potency,[12],active: 2.35 µM
CCNC(=O)Nc1ccc(-c2nc3c(c(N4CCOC[C@H]4C)n2)CCN(C2COC2)C3)cc1,Potency,[1],active: 0.58 µM
same,Potency,[3],active: 1.72 µM
same,Potency,[14],active: 4.69 µM
same,Potency,[16],"inconclusive [cytotoxic, full curve]"
same,Potency,[6],"inconclusive [cytotoxic, full curve]"
same,Potency,[17],inactive
same,Potency,[8],active: 0.332 µM
same,Potency,[9],active: 2.35 µM
same,Potency,[11],"inconclusive [inhibitor, full curve]"
same,Potency,[18],"inconclusive [inhibitor, partial curve]"
same,Potency,[12],"inconclusive [inhibitor, partial curve]"
same,Potency,[13],inactive
Cc1nc(N)nc(N)c1-c1ccc(Cl)c(Cl)c1,Potency,[2],"inconclusive [inhibitor, full curve, poor fit]"
same,Potency,[3],active: 0.55 µM
same,Potency,[14],"inconclusive [cytotoxic, partial curve]"
same,Potency,[4],active: 1.33 µM
same,Potency,[5],"inconclusive [cytotoxic, full curve, poor fit]"
same,Potency,[7],"inconclusive [cytotoxic, full curve]"
same,Potency,[11],"inconclusive [inhibitor, full curve]"
same,Potency,[18],inactive
same,Potency,[12],"inconclusive [inhibitor, single point]"
C=C1C(=O)O[C@@H]2C[C@@H](C)[C@]34C[C@]5(C(=O)O[C@H]6CC(C)=C([C@H](C)CCCO)[C@H](OC(=O)C(C)CC)[C@H]65)[C@@H](C(C)=C3C[C@@H]12)[C@H]4OC(C)=O (some centres not stated),Potency,[15],inactive
Nc1cccc(-c2cc3c(Oc4cccc(O)c4)ncnc3[nH]2)c1,Potency,[3],"inconclusive [cytotoxic, partial curve]"
same,Potency,[14],active: 1.87 µM
same,Potency,[16],active: 20.9 µM
same,Potency,[4],active: 9.35 µM
same,Potency,[5],"inconclusive [cytotoxic, full curve]"
same,Potency,[8],"inconclusive [cytotoxic, full curve, poor fit]"
same,Potency,[9],"inconclusive [rising, full curve, poor fit]"
same,Potency,[10],"inconclusive [cytotoxic, partial curve, poor fit]"
same,Potency,[13],"inconclusive [inhibitor, partial curve, poor fit]"
